Consider 102 sequences from a collection of fitness landscapes (doi:10.1038/s41467-024-54723-y).

In all, about 18,000 sequences were measured (“TetR repression strength (sort-seq, GFP reporter)”: median about 0.23, highest 2% from about 0.68 on). This is one part of the list.

This assay concerns the target TetR (class B, Tn10) (UniProt P04483). In words: TetR repression strength (sort-seq, GFP reporter) (relative to tetO2 = 1); higher = stronger repression. Particulars: E. coli. A digest of the protocol: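 E. coli SIG10-MAX carried a low-copy plasmid library with eight randomized operator positions between a constitutive promoter and sfGFP, with TetR constitutively expressed. Cells grew 5 h at 37 °C in LB with 50 µg/mL chloramphenicol, then 10^6 cells were FACS-sorted into 13 fluorescence bins, each Illumina-sequenced. Repression strength is the top bin index plus one minus the read-weighted mean bin, divided by the wild-type operator value. Three independent transformations; variants with ≥30 reads in all replicates and CV ≤0.5 were averaged.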
Chain of UniProt P04483 (P04483 whole entry): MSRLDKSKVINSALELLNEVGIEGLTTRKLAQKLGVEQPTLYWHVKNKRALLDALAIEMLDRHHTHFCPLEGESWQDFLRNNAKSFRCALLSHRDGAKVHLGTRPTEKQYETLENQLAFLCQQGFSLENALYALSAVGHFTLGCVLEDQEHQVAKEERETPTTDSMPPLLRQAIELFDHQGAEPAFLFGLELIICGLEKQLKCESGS
Turning to TCCCTGAAAGTGACAGAGA, the TetR repression strength was 0.489. The figure for TCCCGTTGAGTGAGGGAGA is 0.397; for TCCCACCCAGTCTCAGAGA it is 0.341. The figure for TCCCAAGAAGTTGCCGAGA is 0.137; for TCCCGGATAGTGGGTGAGA it is 0.0875. The figure for TCCCTATTAGTACTGGAGA is 0.291; for TCCCTCGGAGTTATGGAGA it is 0.41. Turning to TCCCCGCAAGTGATAGAGA, the TetR repression strength was 0.554. The figure for TCCCCTTCAGTTGATGAGA is 0.415; for TCCCGGCAAGTTAGCGAGA it is 0.224. For TCCCACCGAGTAGTCGAGA the value was 0.416; for TCCCCGTCAGTTAGTGAGA, 0.194. For TCCCATGCAGTTAGGGAGA the value was 0.281; for TCCCTACGAGTGGTGGAGA, 0.304; for TCCCTGCTAGTTCTAGAGA, 0.243. TCCCGGGGAGTATTAGAGA had a TetR repression strength of 0.216. TCCCTGCAAGTCCTTGAGA: the TetR repression strength worked out at 0.328. For TCCCTATGAGTCTTGGAGA the value was 0.203. The figure for TCCCGGTCAGTGGCGGAGA is 0.153. TCCCTTGCAGTTATAGAGA returned a TetR repression strength of 0.461.

Regarding TCCCTTTAAGTTCTGGAGA, the TetR repression strength stood at 0.226. The figure for TCCCCGGGAGTGGCGGAGA is 0.0763. TCCCCACTAGTGTTAGAGA gave a TetR repression strength of 0.259. For TCCCACTCAGTATGTGAGA the value was 0.108.

Regarding TCCCTGCTAGTACTCGAGA, the TetR repression strength is 0.211. For TCCCGCTTAGTGCGCGAGA the value was 0.234. The figure for TCCCGTTCAGTGCCAGAGA is 0.53; for TCCCTTTTAGTCGAAGAGA it is 0.139; for TCCCCTAAAGTGAGGGAGA it is 0.0606. The figure for TCCCCGTGAGTCAGGGAGA is 0.152. As for TCCCCAGAAGTCAAGGAGA, the TetR repression strength came to 0.355. For TCCCAGCGAGTAGTCGAGA the value was 0.256; for TCCCGCCTAGTAGGCGAGA, 0.391; for TCCCGTGGAGTTATTGAGA, 0.184. For TCCCAGGGAGTCCATGAGA the value was 0.104; for TCCCGAAAAGTGGTCGAGA, 0.182; for TCCCTTTAAGTATCTGAGA, 0.142.

The sequence TCCCGGAAAGTAAGTGAGA showed a TetR repression strength of 0.161.

Regarding TCCCCCGGAGTAGTGGAGA, the TetR repression strength turned out to be 0.335.

Consider TCCCGTCTAGTTAGAGAGA, for which the TetR repression strength was 0.224. TCCCGGGGAGTTACTGAGA returned a TetR repression strength of 0.305. The figure for TCCCGGCCAGTAAAAGAGA is 0.194; for TCCCAATAAGTTCGGGAGA it is 0.306. The figure for TCCCTTGTAGTCGCGGAGA is 0.0226. The figure for TCCCGAGCAGTTGGTGAGA is 0.317; for TCCCGGGCAGTAGCAGAGA it is 0.401. In the case of TCCCTTGTAGTAGGCGAGA, the TetR repression strength was found to be 0.205. The figure for TCCCGGGGAGTTGAGGAGA is 0.171; for TCCCTGGAAGTTAGGGAGA it is 0.399; for TCCCGGCGAGTGGAAGAGA it is 0.379. For TCCCAGTAAGTCAGAGAGA the value was 0.066; for TCCCAACGAGTGTTCGAGA, 0.0549. Regarding TCCCGGTCAGTGAAAGAGA, the TetR repression strength was found to be 0.692. The figure for TCCCGGCAAGTGTTAGAGA is 0.297; for TCCCTGCTAGTTCCAGAGA it is 0.19; for TCCCTGTAAGTGACGGAGA it is 0.796. For TCCCTAGGAGTTTTAGAGA the value was 0.292. In turn, TCCCGAGAAGTGGAGGAGA displayed a TetR repression strength of 0.216. TCCCTCGTAGTGTGGGAGA returned a TetR repression strength of 0.159. For TCCCCGAGAGTGAAGGAGA the value was 0; for TCCCCTGCAGTAATGGAGA, 0.0455. Sequence TCCCTTGCAGTTTGTGAGA registered a TetR repression strength of 0.541. The figure for TCCCTTGCAGTGACAGAGA is 0.649.

TCCCGGATAGTAATAGAGA showed a TetR repression strength of 0.415.

As to TCCCACTCAGTGCTAGAGA, the TetR repression strength was found to be 0.611.

TCCCCTCAAGTGGCTGAGA: the TetR repression strength came out at 0.287. The figure for TCCCTTCAAGTTCGCGAGA is 0.308; for TCCCATTGAGTGGGGGAGA it is 0.144. For TCCCGCGTAGTTCGCGAGA the value was 0.113. For TCCCTACAAGTTTCGGAGA the value was 0.416; for TCCCACTCAGTCAGGGAGA, 0.182; for TCCCGGGCAGTCAAGGAGA, 0.315.

In the case of TCCCACCTAGTGTTAGAGA, the TetR repression strength is 0.579. For TCCCGTGAAGTGTGCGAGA the value was 0.0194. The figure for TCCCACGAAGTAGGCGAGA is 0.0447; for TCCCAGTCAGTCTTTGAGA it is 0.726; for TCCCACTAAGTATCCGAGA it is 0.18.

TCCCTTACAGTAGCTGAGA: the TetR repression strength amounted to 0.3.

Consider TCCCGATCAGTTCTAGAGA, for which the TetR repression strength worked out at 0.344.

TCCCTTGGAGTCCGTGAGA showed a TetR repression strength of 0.171. The figure for TCCCTGTGAGTCTGAGAGA is 0.351. TCCCAGAGAGTGGGGGAGA had a TetR repression strength of 0.192.

The sequence TCCCCGTGAGTGGAAGAGA returned a TetR repression strength of 0.227. For TCCCCGCTAGTTAGAGAGA the value was 0.2; for TCCCTGGTAGTTGGAGAGA, 0.24; for TCCCGCTGAGTATCAGAGA, 0.288. The figure for TCCCTCGAAGTGTCAGAGA is 0.0462; for TCCCAGAAAGTGATGGAGA it is 0.257. TCCCGTTGAGTTGGCGAGA displayed a TetR repression strength of 0.122. For TCCCTATCAGTAGTGGAGA the value was 0.434; for TCCCACTGAGTTCCAGAGA, 0.207. For TCCCGTGTAGTGAGGGAGA the value was 0.487; for TCCCCTATAGTTTCGGAGA, 0.238; for TCCCACCTAGTACTGGAGA, 0.302. The figure for TCCCAATAAGTTAACGAGA is 0.0378. In the case of TCCCCCCGAGTTGGGGAGA, the TetR repression strength worked out at 0.0812. The figure for TCCCCATAAGTAGTGGAGA is 0.182; for TCCCCTATAGTCTGAGAGA it is 0.0168.

Sequence TCCCAATCAGTCATCGAGA returned a TetR repression strength of 0.557. For TCCCCGGTAGTGGGGGAGA the value was 0.394.

The sequence TCCCGACCAGTATGCGAGA registered a TetR repression strength of 0.0346. TCCCCGGGAGTGGTTGAGA showed a TetR repression strength of 0.19.
